Test results published in the supplement of paper PMC12578646, “Prodrug florfenicol amine is activated by intrinsic resistance to target Mycobacterium abscessus” (Nature Microbiology, 2025).
Values after ≈ are worked out from the molar mass of the structure shown. ± gives the standard deviation of the averaged measurements. M. abscessus ATCC 19977 and its deletion, point and complemented mutants after 5 days of drug at 37 °C plus 24 h of resazurin. Growth in % of untreated wells at the dose given (lower = more inhibition); checkerboards give % inhibition (higher = more inhibition); IC50 from the fitted curve (lower = more potent). No active / inactive call. IC50 values come from the same 384-well curves. Growth is not capped and can exceed 100%. The direction of the checkerboard scale is read from the raw signals. Capreomycin is a mixture.

Columns and labels:
[1] = tested on: Mycobacterium abscessus ATCC 19977 Eis2 E120fs
Description: (§1)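 384-well two-fold dose series, two replicates; 5 days at 37 °C, then 24 h with resazurin; fluorescence scaled to growth and killed controls.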

[2] = tested on: Mycobacterium abscessus ATCC 19977 Eis2 Y227D
Description: as §1

[3] = tested on: Mycobacterium abscessus ATCC 19977 Δeis2
Description: as §1

[4] = tested on: Mycobacterium abscessus ATCC 19977 WhiB7 F24fs
Description: as §1

[5] = tested on: Mycobacterium abscessus ATCC 19977 WhiB7 L37P
Description: as §1

[6] = tested on: Mycobacterium abscessus ATCC 19977 WhiB7 A51T
Description: as §1

[7] = tested on: Mycobacterium abscessus ATCC 19977 Eis2 Y255*
Description: as §1

[8] = tested on: Mycobacterium abscessus ATCC 19977 WhiB7 T70fs
Description: as §1

[9] = tested on: Mycobacterium abscessus ATCC 19977 Eis2 Y284*
Description: as §1

[10] = tested on: Mycobacterium abscessus ATCC 19977 Eis2 T258R
Description: as §1

[11] = tested on: Mycobacterium abscessus ATCC 19977 ΔwhiB7
Description: as §1

[12] = tested on: Mycobacterium abscessus ATCC 19977 WhiB7 R76del
Description: as §1

[13] = tested on: Mycobacterium abscessus ATCC 19977 Eis2 E120fs; experiment: growth relative to untreated wells; higher = more growth (less inhibition)
Description: as §1

[14] = tested on: Mycobacterium abscessus ATCC 19977 Eis2 Y227D; experiment: as above
Description: as §1

[15] = tested on: Mycobacterium abscessus ATCC 19977 Δeis2; experiment: as above
Description: as §1

[16] = tested on: Mycobacterium abscessus ATCC 19977 WhiB7 F24fs; experiment: as above
Description: as §1

Molecule `CC(=O)NC[C@H]1CN(c2ccc(N3CCOCC3)c(F)c2)C(=O)O1` [linezolid] has an IC50 [1] of 3.72 µg/mL (≈ 11 µM), an IC50 [2] of 4.13 µg/mL (≈ 12.2 µM) and an IC50 [3] of 3.09 µg/mL (≈ 9.16 µM). It also gave an IC50 [4] of 3.66 µg/mL (≈ 10.8 µM), an IC50 [5] of 4.66 µg/mL (≈ 13.8 µM) and an IC50 [6] of 4.75 µg/mL (≈ 14.1 µM). It also gave an IC50 [7] of 3.67 µg/mL (≈ 10.9 µM), an IC50 [8] of 3.73 µg/mL (≈ 11.1 µM) and an IC50 [9] of 3.56 µg/mL (≈ 10.5 µM). It also gave an IC50 [10] of 3.19 µg/mL (≈ 9.45 µM), an IC50 [11] of 5.02 µg/mL (≈ 14.9 µM) and an IC50 [12] of 3.67 µg/mL (≈ 10.9 µM). It also gave a growth ([13]; 0.125 µg/mL) of 93.06 ± 0.37%, a growth ([13]; 0.25 µg/mL) of 106 ± 12% and a growth ([13]; 0.5 µg/mL) of 109 ± 1.9%. The growth ([13]; 1 µg/mL) was 118 ± 9.6%, the growth ([13]; 2 µg/mL) was 120 ± 9.6% and the growth ([13]; 4 µg/mL) was 35.5 ± 2.7%. The growth ([13]; 8 µg/mL) was 2.29 ± 1.9%, the growth ([13]; 16 µg/mL) was -2.349 ± 0.01% and the growth ([13]; 32 µg/mL) was 1.87 ± 7.6%. It also gave a growth ([13]; 64 µg/mL) of -2.954 ± 0.0087%, a growth ([13]; 128 µg/mL) of -3.07 ± 0.28% and a growth ([13]; 256 µg/mL) of -2.64 ± 0.05%. It also gave a growth ([14]; 0.125 µg/mL) of 99.1 ± 1.4%, a growth ([14]; 0.25 µg/mL) of 104 ± 9.3% and a growth ([14]; 0.5 µg/mL) of 109 ± 2.8%. For the same molecule, the growth ([14]; 1 µg/mL) was 119 ± 2%, the growth ([14]; 2 µg/mL) was 119 ± 1.8% and the growth ([14]; 4 µg/mL) was 52.2 ± 15%. For the same molecule, the growth ([14]; 8 µg/mL) was 8.42 ± 1.3%, the growth ([14]; 16 µg/mL) was -0.55 ± 0.64% and the growth ([14]; 32 µg/mL) was -2.38 ± 0.52%. For the same molecule, the growth ([14]; 64 µg/mL) was -1.27 ± 0.24%, the growth ([14]; 128 µg/mL) was -1.84 ± 0.11% and the growth ([14]; 256 µg/mL) was -0.956 ± 0.8%. The growth ([15]; 0.125 µg/mL) was 90.4 ± 5.9%, the growth ([15]; 0.25 µg/mL) was 99.35 ± 0.39% and the growth ([15]; 0.5 µg/mL) was 95.8 ± 2.8%. The growth ([15]; 1 µg/mL) was 108 ± 2.2%, the growth ([15]; 2 µg/mL) was 96 ± 33% and the growth ([15]; 4 µg/mL) was 24.9 ± 0.7%. For the same molecule, the growth ([15]; 8 µg/mL) was 5.89 ± 7.2%, the growth ([15]; 16 µg/mL) was -3.91 ± 0.61% and the growth ([15]; 32 µg/mL) was -4.067 ± 0.024%. It also gave a growth ([15]; 64 µg/mL) of 5.75 ± 14%, a growth ([15]; 128 µg/mL) of -3.57 ± 0.37% and a growth ([15]; 256 µg/mL) of -3.14 ± 0.095%. It also gave a growth ([16]; 0.125 µg/mL) of 98.3 ± 13%, a growth ([16]; 0.25 µg/mL) of 104 ± 3.4% and a growth ([16]; 0.5 µg/mL) of 100 ± 1.9%. The growth ([16]; 1 µg/mL) was 113 ± 1.6%, the growth ([16]; 2 µg/mL) was 113 ± 1.8% and the growth ([16]; 4 µg/mL) was 34.7 ± 9.5%. For the same molecule, the growth ([16]; 8 µg/mL) was 5.68 ± 1.8%, the growth ([16]; 16 µg/mL) was -3.04 ± 0.27% and the growth ([16]; 32 µg/mL) was -2.78 ± 0.55%. For the same molecule, the growth ([16]; 64 µg/mL) was -2.86 ± 0.77%, the growth ([16]; 128 µg/mL) was -2.79 ± 0.75% and the growth ([16]; 256 µg/mL) was -2.61 ± 0.7%.
